This is an account of results in US20250170255A1.

In this experiment the target is biotinylated human TROP2 antigen (human) (UniProt P09758). Briefly: ELISA pH 7.5 against pH 5.5. Background: An ELISA detects its analyte on a solid surface through an enzyme-linked reagent.
Sequence of UniProt P09758 (P09758 27-274): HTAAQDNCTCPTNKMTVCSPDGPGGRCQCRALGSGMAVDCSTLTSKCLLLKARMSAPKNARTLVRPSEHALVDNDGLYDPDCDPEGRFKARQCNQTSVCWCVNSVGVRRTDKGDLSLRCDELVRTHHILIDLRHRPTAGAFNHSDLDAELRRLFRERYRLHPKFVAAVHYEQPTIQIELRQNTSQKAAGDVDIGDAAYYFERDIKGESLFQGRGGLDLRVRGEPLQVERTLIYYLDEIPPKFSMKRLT

B1: anti-TROP2 masked antibody MHT1008 (antibody)
heavy: GYLALKHPWPGLAENSGSGGGGSGGGGSGGGGSGGSQVQLVQSGAEVKKPGASVKVSCKASGYTFTTAGMQWVRQAPGQGLEWMGWINTHSGVPKYAEDFKGRVTISADTSTSTAYLQLSSLKSEDTAVYYCARSGFGSSYWYFDVWGQGTLVTVSSASTKGPSVFPLAPSSKSTSGGTAALGCLVKDYFPEPVTVSWNSGALTSGVHTFPAVLQSSGLYSLSSVVTVPSSSLGTQTYICNVNHKPSNTKVDKRV[human IgG1 Fc not spelt out]
light: DIQMTQSPSSLSASVGDRVTITCKASQDVSTAVAWYQQKPGKAPKLLIYSASYRYTGVPSRFSGSGSGTDFTLTISSLQPEDFAVYYCQQHYITPLTFGQGTKLEIKRTVAAPSVFIFPPSDEQLKSGTASVVCLLNNFYPREAKVQWKVDNALQSGNSQESVTEQDSKDSTYSLSSTLTLSKADYEKHKVYACEVTHQGLSSPVTKSFNRGEC
In the case of B1, the EC50 ratio (neutral pH conditions/acidic pH conditions) is 1.2.
